Measured values published in the supplement of paper PMC4967469.

Experiments:
Test in all cases: Viability of human cancer cell lines after 72 h of drug (GDSC screen)
Epothilone B = compound: C/C(=C\c1csc(C)n1)[C@@H]1C[C@@H]2O[C@]2(C)CCC[C@H](C)[C@H](O)[C@@H](C)C(=O)C(C)(C)[C@@H](O)CC(=O)O1 [Epothilone B]; conditions: top dose 0.032 µM; top dose inferred
Experimental: (§1)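 Human cancer cell lines in 384-well plates, medium with 10% serum, drug for 72 h over a 256-fold dose range (nine 2-fold or five 4-fold steps up to the top dose). Adherent lines were fixed and stained with the nucleic acid dye Syto60, suspension lines read with resazurin; signal relative to control wells, capped at 0 and 100%. One two-parameter sigmoid per drug and line, fitted in a mixed model over all curves with the slope shared within a line.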

PHA-793887 = compound: CC(C)CC(=O)Nc1n[nH]c2c1CN(C(=O)C1CCN(C)CC1)C2(C)C [PHA-793887]; conditions: top dose 10.24 µM
Experimental: as §1

PLX4720 = compound: CCCS(=O)(=O)Nc1ccc(F)c(C(=O)c2c[nH]c3ncc(Cl)cc23)c1F [PLX4720]; conditions: top dose 10 µM
Experimental: as §1

Pyrimethamine = compound: CCc1nc(N)nc(N)c1-c1ccc(Cl)cc1 [Pyrimethamine]; conditions: top dose 20 µM; top dose inferred
Experimental: as §1

AZD-0530 = compound: CN1CCN(CCOc2cc(OC3CCOCC3)c3c(Nc4c(Cl)ccc5c4OCO5)ncnc3c2)CC1 [AZD-0530]; conditions: top dose 2 µM
Experimental: as §1

Y-39983 = compound: C[C@@H](N)c1ccc(C(=O)Nc2ccnc3[nH]ccc23)cc1 [Y-39983]; conditions: top dose 20 µM; top dose inferred
Experimental: as §1

Imatinib = compound: Cc1ccc(NC(=O)c2ccc(CN3CCN(C)CC3)cc2)cc1Nc1nccc(-c2cccnc2)n1 [Imatinib]; conditions: top dose 2 µM
Experimental: as §1

TPCA-1 = compound: NC(=O)Nc1sc(-c2ccc(F)cc2)cc1C(N)=O [TPCA-1]; conditions: top dose 20 µM
Experimental: as §1

[1] = screen: GDSC drug entry 1371, top dose inferred

| Cell Line | AUC (Epothilone B) | IC50 (Epothilone B) [µM] | AUC (PHA-793887) | IC50 (PHA-793887) [µM] | AUC (PLX4720; [1]) | IC50 (PLX4720; [1]) [µM] | AUC (Pyrimethamine) | IC50 (Pyrimethamine) [µM] | AUC (AZD-0530) | IC50 (AZD-0530) [µM] | AUC (Y-39983) | IC50 (Y-39983) [µM] | AUC (Imatinib) | IC50 (Imatinib) [µM] | AUC (TPCA-1) | IC50 (TPCA-1) [µM] | AUC (PLX4720; screen: GDSC drug entry 1036) | IC50 (PLX4720; screen: GDSC drug entry 1036) [µM] |
| --- | --- | --- | --- | --- | --- | --- | --- | --- | --- | --- | --- | --- | --- | --- | --- | --- | --- | --- |
| BB65-RCC (kidney, adherent) | 0.377 | 0.00087 | 0.982 | > 10.2 | 0.842 | 8.62 | 0.883 | > 20 | 0.928 | > 2 | 0.966 | > 20 | 0.98 | > 2 | 0.939 | > 20 |  |  |
| CA46 (Burkitt lymphoma, suspension) | 0.792 | 0.0156 | 0.402 | 0.338 | 0.942 | > 10 | 0.952 | > 20 | 0.98 | > 2 | 0.777 | 8.64 | 0.984 | > 2 | 0.636 | 3.05 | 0.964 | > 10 |
| CESS (acute myeloid leukaemia, suspension) | 0.581 | 0.00323 | 0.388 | 0.331 | 0.953 | > 10 | 0.749 |  | 0.99 | > 2 | 0.803 | 8.27 | 0.99 | > 2 | 0.664 | 3.32 | 0.969 | > 10 |
| CGTH-W-1 (thyroid, adherent) | 0.571 | 0.00312 | 0.876 | 10.1 | 0.985 | > 10 | 0.835 | 13 | 0.926 | > 2 | 0.981 | > 20 | 0.597 | 0.23 | 0.889 | > 20 | 0.959 | > 10 |
| COLO-800 (melanoma, adherent) | 0.862 | 0.026 | 0.811 | 5.26 | 0.783 | 4.1 | 0.894 | > 20 | 0.958 | > 2 | 0.974 | > 20 | 0.98 | > 2 | 0.939 | > 20 | 0.988 | > 10 |
| COR-L88 (small cell lung carcinoma, adherent) | 0.928 | > 0.032 | 0.884 | > 10.2 | 0.971 | > 10 | 0.904 | > 20 | 0.973 | > 2 | 0.971 | > 20 | 0.96 | > 2 | 0.867 | > 20 | 0.982 | > 10 |
| COR-L279 (small cell lung carcinoma, suspension) | 0.763 | 0.0103 | 0.399 | 0.35 | 0.957 | > 10 | 0.77 | 6.81 | 0.988 | > 2 | 0.991 | > 20 | 0.99 | > 2 | 0.884 | 17.5 | 0.991 | > 10 |
| CTB-1 (B-cell lymphoma, suspension) | 0.756 | 0.0147 | 0.472 | 0.524 | 0.907 | > 10 | 0.876 | > 20 | 0.915 | > 2 | 0.789 | 12.6 | 0.971 | > 2 | 0.411 | 0.654 | 0.857 | > 10 |
| D-502MG (glioma, adherent) | 0.884 | > 0.032 | 0.955 | > 10.2 | 0.953 | > 10 | 0.949 | > 20 | 0.971 | > 2 | 0.957 | > 20 | 0.971 | > 2 | 0.862 | > 20 | 0.901 | > 10 |
| DB (B-cell lymphoma, suspension) | 0.653 | 0.00563 | 0.677 | 2.13 | 0.881 | > 10 | 0.862 | > 20 | 0.977 | > 2 | 0.882 | > 20 | 0.98 | > 2 | 0.665 | 3.83 | 0.905 | > 10 |
| EB2 (Burkitt lymphoma, suspension) | 0.583 | 0.00331 | 0.388 | 0.325 | 0.983 | > 10 | 0.98 | > 20 | 0.987 | > 2 | 0.826 | 10.6 | 0.97 | > 2 | 0.305 | 0.376 | 0.99 | > 10 |
| EM-2 (chronic myeloid leukaemia, suspension) | 0.842 | 0.0268 | 0.712 | 2.77 | 0.952 | > 10 | 0.776 | 9.08 | 0.626 | 0.292 | 0.823 | 13.8 | 0.468 | 0.101 | 0.715 | 5.55 | 0.937 | > 10 |
| ES-2 (ovary, adherent) | 0.92 | > 0.032 | 0.929 | > 10.2 | 0.721 | 2.41 | 0.722 | 4.85 | 0.986 | > 2 | 0.93 | > 20 | 0.99 | > 2 | 0.784 | 7.42 | 0.859 | 6.71 |
| GOTO (neuroblastoma, adherent) | 0.902 | > 0.032 | 0.856 | 10.1 | 0.978 | > 10 | 0.915 | > 20 | 0.948 | > 2 | 0.92 | > 20 | 0.971 | > 2 | 0.829 | 14.9 | 0.961 | > 10 |
| GT3TKB (stomach, adherent) | 0.302 | 0.000603 | 0.955 | > 10.2 | 0.825 | 5.07 | 0.99 | > 20 | 0.989 | > 2 | 0.983 | > 20 | 0.99 | > 2 | 0.971 | > 20 | 0.989 | > 10 |

IC50 is the fitted dose that halves viability relative to control wells, and lower means more sensitive; a fit beyond the top or the lowest dose is shown as a bound at that dose. AUC is the area under the same curve over the 256-fold range up to the top dose, as a fraction; values near 1 show little effect. For part of these data: Where the top dose is marked as inferred, it was derived from the fitted curves, not read from the paper. For part of these data: An entry number marks a drug with two screens in the source, which often give different values.
